Our source for the Rate and rate of incorporation values is patent US7393640B2, “Terminal-phosphate-labeled nucleotides with new linkers” (GE Healthcare Bio-Sciences Corp., priority 2003, dated 2008).

The subject of one assay is Phi29 DNA polymerase. Particulars: same procedure as example 15. The procedure: The reaction mixture contained 10 nM Cy5-20mer primer (SEQ ID NO: 1) and 40mer oligonucleotide template (SEQ ID NO: 5, shown above), 20 mM Tris-HCl, 0.01% Tween 20, 5 mM MgCl2, 0.5 mM MnCl2,1 mM DTT, Bacterial alkaline phosphatase (BAP) and 100 mM terminal phosphate labeled nucleotide and DNA polymerase. • a. All components with the exception of DNA polymerase were combined and incubated in the presence of 0.0015 U/ul of BAP for 5 minutes at the 25° C. to hydrolyze any unlabeled nucleotides. • b. 1 ul of the reaction mix removed as a time=0 point and quenched in 4 ul of 95% formamide/25 mM EDTA • c. 1 ul of DNA polymerase was added to initiate the reaction. 2 ul aliquots at different time points were taken (for rapid time courses at 15, 30, and 60 sec) and were quenched in 8 ul 95% formamide/25 mM EDTA. • d. Samples were denatured in a boiling water bath for 4 min, quick chilled on ice and 2 ul was loaded on a 25% (19:1-Acrylamide: Bisacylamide), 8M Urea, 1×TBE PAGE. Gels were run for approximately 1 hr at 500V. • e. DNA products were visualized on Storm 860 and quantitated by calculating the fraction of the total 20mer primer converted to 21mer product.
The following primer/template were used, A (for deoxyguanosine analog, SEQ ID NO: 1 and SEQ ID NO: 2) and B (for Thymidine Analogs, SEQ ID NO: 1 and SEQ ID NO: 5)
Same procedure was used as reported above in example 15.

The subject of another assay is ThermoSequenase I. As to the kind of experiment: Rate of incorporation, primer extension 20mer to 21mer on gel. Particulars: 5 mM MgCl2, 0.5 mM MnCl2. Type of assay: biochemical.
A further assay has as its system Ttm. The assay is described as above. Type of assay: biochemical. Particulars: 5 mM MgCl2, 0.5 mM MnCl2.
Another assay relates to Sequenase. The description is as above. The class given is biochemical. The settings on record: 5 mM MgCl2, 0.5 mM MnCl2.
A further assay deals with Thy B. Described as above. The class given is biochemical. Particulars: 5 mM MgCl2, 0.5 mM MnCl2.
For the next assay, the system named is 9° N-exo- (NEN). The assay is described as above. Type of assay: biochemical. The settings on record: 5 mM MgCl2, 0.5 mM MnCl2.
Another assay deals with Tsp JS1 (WO 2003/004632). The description is as above. Type of assay: biochemical. Particulars: 5 mM MgCl2, 0.5 mM MnCl2.
Another assay relates to Tne. The description is as above. The class given is biochemical. The settings on record: 5 mM MgCl2, 0.5 mM MnCl2.
For the next assay, the system named is Tsu. The description is as above. Type of assay: biochemical. The settings on record: 5 mM MgCl2, 0.5 mM MnCl2.
The target of the next assay is Human pol beta (Homo sapiens, UniProt P06746). Described as above. Type of assay: biochemical. The settings on record: 5 mM MgCl2, 0.5 mM MnCl2.
The test system of another assay is AMV. Described as above. Type of assay: biochemical. The settings on record: 5 mM MgCl2, 0.5 mM MnCl2. From the text: (§1) The rate of incorporation of the optimal linker attached dNTP (NH(CH2)7NH between the terminal phosphate and the dye moiety) was compared with the additional penta-lysine attached dNTP. A number of different DNA polymerases were used in the study to ascertain the effect of lysine moieties in the linker on the incorporation of nucleotides.

The target of the next assay is T1, Klenow exo- (Escherichia coli, UniProt P00582, D355A/E357A).
T1 construct: Klenow exo-
The description is as above. Type of assay: biochemical. The settings on record: 5 mM MgCl2, 0.5 mM MnCl2.
From the text: as §1

The target in a further assay is Phi-29 D12A (Bacillus phage phi29, UniProt P03680, D12A). The description is as above. Particulars: 5 mM MgCl2, 0.5 mM MnCl2. Type of assay: biochemical.
From the text: as §1

The test system of the next assay is delta-T10. Described as above. Particulars: 5 mM MgCl2, 0.5 mM MnCl2. Type of assay: biochemical.
The target of the next assay is T2, Pfu (Pyrococcus furiosus, UniProt P61875).
T2 sequence (P61875 1-775): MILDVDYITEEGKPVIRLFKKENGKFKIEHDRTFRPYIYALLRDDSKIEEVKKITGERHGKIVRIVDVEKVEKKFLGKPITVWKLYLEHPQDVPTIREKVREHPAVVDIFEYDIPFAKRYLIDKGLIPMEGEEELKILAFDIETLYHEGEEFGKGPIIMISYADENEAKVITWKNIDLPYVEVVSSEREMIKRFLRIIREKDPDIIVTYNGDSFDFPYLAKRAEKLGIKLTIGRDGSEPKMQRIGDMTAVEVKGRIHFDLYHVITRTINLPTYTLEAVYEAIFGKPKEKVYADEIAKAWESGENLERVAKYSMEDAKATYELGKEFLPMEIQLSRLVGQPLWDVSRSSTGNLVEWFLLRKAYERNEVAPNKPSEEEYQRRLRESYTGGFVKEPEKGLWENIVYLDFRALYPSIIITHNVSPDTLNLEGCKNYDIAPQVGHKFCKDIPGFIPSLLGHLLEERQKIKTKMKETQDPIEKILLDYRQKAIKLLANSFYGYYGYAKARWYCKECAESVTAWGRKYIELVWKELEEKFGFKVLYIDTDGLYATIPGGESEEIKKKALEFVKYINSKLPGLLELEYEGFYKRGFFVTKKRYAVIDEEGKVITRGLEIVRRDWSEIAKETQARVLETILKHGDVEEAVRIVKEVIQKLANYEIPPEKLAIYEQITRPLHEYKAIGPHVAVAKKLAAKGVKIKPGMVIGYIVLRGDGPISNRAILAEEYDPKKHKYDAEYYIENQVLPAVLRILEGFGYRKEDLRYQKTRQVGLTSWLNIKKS
Described as above. Particulars: 5 mM MgCl2, 0.5 mM MnCl2. The class given is biochemical.

In turn, `CCOc1ccc2c(c1)Oc1cc(OP(=O)(O)OP(=O)(O)OP(=O)(O)OP(=O)(O)OC[C@H]3O[C@@H](n4cnc5c(=O)[nH]c(N)nc54)C[C@@H]3O)ccc1C21OC(=O)c2ccccc21` (some centres unmarked) [dG4P-Ethylfluorescein, 2′-Deoxyguanosine-5′-(δ-3′-(6′-ethylfluorescein))tetraphosphate] displayed a Rate in the assay on Phi29 DNA polymerase of 9.1 nM/min.

As to `CCOc1ccc2c(c1)Oc1cc(OP(=O)(O)OP(=O)(O)OP(=O)(O)OP(=O)(O)OP(=O)(O)OC[C@H]3O[C@@H](n4cnc5c(=O)[nH]c(N)nc54)C[C@@H]3O)ccc1C21OC(=O)c2ccccc21` (some centres unmarked) [dG5P-Ethylfluorescein, 2′-Deoxyguanosine-5′-(ε-3′-(6′-ethylfluorescein))pentaphosphate], in the assay with Phi29 DNA polymerase, the Rate was found to be 17.6 nM/min.

Take “TAMRA-amidoheptyl-gamma-amido-thymidine-triphosphate [dTTP-C7-TAMRA]”: the rate of incorporation in the assay with ThermoSequenase I is listed as 0.2 nM/min; in the assay on Ttm it was 1.2 nM/min; in the assay with Sequenase it was 0.2 nM/min; with Thy B, 1.29 nM/min; in the assay on 9° N-exo- (NEN), 6 nM/min; in the assay on Tsp JS1 (WO 2003/004632), 0.2 nM/min. The rate of incorporation stood at 2.3 nM/min with Tne; 1.00 nM/min in the assay on Tsu; 5.6 nM/min at Human pol beta; 0.2 nM/min in the assay with AMV; 0.2 nM/min at Klenow exo-; 2 nM/min on Phi-29 D12A. Besides, the rate of incorporation is 6.2 nM/min in the assay with delta-T10 and 4 nM/min at Pfu. Further, in the assay with Phi29 DNA polymerase, the Rate worked out at 1.96 nM/min.
